Reference: PubChem BioAssay AID1508642 (National Center for Advancing Translational Sciences (NCATS), 2021)
The whole screen tested about 43,000 compounds, of which about 200 (0.47%) were called active. Not shown: some 12% with an inconclusive outcome. Calls follow the shape of the dose curve; as a rule, active = well fitted cell-killing curve with a large enough effect; inconclusive = small, poorly fitted or top-dose-only effect, or effect the other way; inactive = flat fitted curve, though single readings scatter. Some of the results follow.

Experiment: Cell viability qHTS assay in S16 Pmp22-F2sN cells; also: nearly all actives have a fitted effect of over 65% in size
Settings: S16 Pmp22-F2sN Schwann cells (luciferase reporters placed in the Pmp22 gene) viability, CellTiter-Glo, 24 h; series mostly up to 57.5 µM; activity change, negative = cytotoxicity: at the top concentration
Method in brief: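 S16 Schwann cells carrying the Pmp22-F2sN reporter, seeded in 1536-well format, were exposed to library compounds for 24 h at 37C. Viability was read as CellTiter-Glo luminescence after 15 min at room temperature.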
% is scaled to controls: 0 for no effect and ±100 for the full control effect.

Row | SMILES | activity change, negative = cytotoxicity
1 | Cc1cc(C)c(Cn2c(=O)n(CCCCC(=O)NCc3ccccc3Cl)c(=O)c3ccccc32)c(C)c1 | inactive: -7.63%
2 | CCC(=O)Nc1ccccc1-c1nc2ccccc2n(C(CC)C(=O)Nc2cccc(Cl)c2)c1=O (centres undefined) | inactive: 3.83%
3 | CCOC(=O)c1c(C)sc(-c2c(-c3cccc(Cl)c3)[nH]c3c2c(=O)n(C)c(=O)n3C)c1O | inactive: 1.37%
4 | COc1ccc(NC(=O)C2=C(C)Nc3ncnn3C2c2ccc[nH]2)cc1 (centres undefined) | inactive: -0.848%
5 | Cc1ccc(CNC(=O)CCc2cn(Cc3ccc(C)cc3)c3ccccc23)cc1 | inactive: 13.3%
6 | CCOc1ccc(-c2cc3nc(C4CCN(C(=O)OC(C)(C)C)CC4)c(C(=O)Nc4c(C)cccc4C)cn3n2)cc1 | inactive: 4.4%
7 | C=Cc1ccc(Cn2ccn(-c3ccc(F)c(F)c3)c(=O)c2=O)cc1 | inactive: -2.47%
8 | Cc1c(C(=O)N(C)C)sc2c1c(=O)n(-c1ccc(F)cc1)c(=O)n2Cc1ccccc1C#N | inactive: 1.61%
9 | CCc1ccccc1N(C)S(=O)(=O)c1ccc2c(c1)C(C)(C)C(=O)N2C | inactive: 17.8%
10 | CC(=O)Nc1ccc(NC(=O)C2CCN(c3cnccn3)CC2)cc1 | inactive: 7.78%
11 | Fc1ccc2c(c1)-c1c(cnc3cc(-c4ccc(Cl)cc4)nn13)CO2 | inactive: 17%
12 | COc1cccc(NC(=O)c2csnn2)c1 | inactive: -18.6%
13 | CCN(CC)S(=O)(=O)c1nnc(NC(=O)c2ccc(Br)cc2)s1 | inactive: -25.9%
14 | COc1ccc(-c2nc(CSc3nnc(C)n4c3cc3oc(C)cc34)c(C)o2)cc1OC | inactive: 13.4%
15 | COc1ccc(CCNC(=O)C2CCCN(S(=O)(=O)c3ccc4c(c3)oc(=O)n4C)C2)cc1OC (centres undefined) | inactive: 2.74%
16 | O=S(=O)(c1ccccc1)c1nc(-c2cccc(Cl)c2)oc1N1CCOCC1 | inactive: -11.6%
17 | Cc1cc(NC(=O)Cn2c(=O)oc3cc(S(=O)(=O)N4CCCC4)ccc32)ccc1Br | inactive: -2.27%
18 | O=C(Cn1ncc2c(=O)oc3ccccc3c21)N1CCN(c2ccc(Cl)cc2)CC1 | inactive: 8.83%
19 | COc1ccc(-n2nc3c(N4CCC(C(=O)NCCc5ccccc5)CC4)nnc(C)c3c2C)cc1 | inactive: -2.77%
20 | COc1cccc(CSc2nc(-c3ccccc3F)nc3c2Cc2c(CO)cnc(C)c2O3)c1 | inactive: 0.55%
21 | COc1ccc2cc(CNc3ccc(C)cc3)c(=O)n(CC(=O)Nc3cccc(Cl)c3C)c2c1 | inactive: 5.21%
22 | CCOC(=O)c1c(NC(=O)COc2ccccc2Br)sc2c1CCCCC2 | inactive: -13.1%
23 | Cc1ccc(-c2nnc(Nc3ccccc3)c3ccccc23)cc1S(=O)(=O)N1CCN(C)CC1 | inactive: -3.41%
24 | CC(C)(C)c1ccc(C(=O)N(Cc2ccc(F)cc2)Cc2ccco2)cc1 | inactive: -10.4%

Row | SMILES | activity change, negative = cytotoxicity
25 | CCCNC(=O)c1ccc(Cn2c(=O)c3cccn3c3cccnc32)cc1 | inactive: -2.15%
26 | CCc1ccccc1NC(=O)c1ccc2c(c1)nnn2C1CCCC1 | inactive: 29.4%
27 | CCOc1ccccc1NC(=O)CN1C(=O)COc2ccc(S(=O)(=O)NC3CCCC3)cc21 | inactive: 5.13%
28 | Cc1ccc(CNC(=O)Cc2ccc(NC(=O)N3CCSc4ncccc43)cc2)cc1 | inactive: -4.61%
29 | CC(C)(C)NC(=O)N1CCC(C(=O)O)CC1 | inactive: 2.46%
30 | O=C(Nc1cccc(C(F)(F)F)c1)c1cccc(C(=O)Nc2cccc(C(F)(F)F)c2)c1 | inactive: -4.16%
31 | Cc1ccc(N2CCN(S(=O)(=O)c3ccc(Cl)c4ccccc34)CC2)c(C)c1 | inactive: 3.21%
32 | CCOC(=O)c1c(C)c(-c2ccccc2)n(CC(=O)Nc2cc(C)cc(C)c2)c1C | inactive: -7.9%
33 | COCCCNC(=O)CCCn1c(=O)c2cccn2c2ccccc21 | inactive: 12.7%
34 | COc1ccccc1CNC(=O)CCC1N=C2c3ccccc3N=C(SCc3ccc(Cl)cc3)N2C1=O (centres undefined) | inactive: -24.7%
35 | Cc1ccc(S(=O)(=O)NC2(C(F)(F)F)C(=O)Nc3c2c(=O)[nH]c(=O)n3-c2ccccc2)cc1 (centres undefined) | inactive: -1.46%
36 | Cc1ccc(CNS(=O)(=O)c2cc3[nH]c(=O)c(=O)[nH]c3cc2C)cc1 | inactive: 13.4%
37 | Cc1cn2c(=O)cc(COc3ccccc3NC(=O)c3ccco3)nc2s1 | inactive: 7.78%
38 | Cc1c(C(=O)NCc2cccc(Cl)c2)sc2nc3n(c(=O)c12)CCC3 | inactive: -8.45%
39 | Cc1ccc(C(=O)Nc2ccc3nc(SCC(=O)N4CCCc5ccccc54)sc3c2)cc1 | inactive: -18.1%
40 | O=C(COC(=O)c1cc(-c2ccccc2)nc2ccccc12)c1ccc(Br)cc1 | inactive: -4.39%
41 | CSc1nc2sc3c(c2c(=O)n1Cc1ccccc1)CCC(C(C)(C)C)C3 (centres undefined) | inactive: 4.01%
42 | NC(=O)c1nc(-c2ccc(F)c(F)c2)nc2c1[nH]c(=O)n2-c1cccc(Cl)c1 | inactive: 3.18%
43 | CCN1CCN(CCCNC(=O)c2cnn(-c3ccc(C)cc3C)c2C2CCN(C(=O)OC(C)(C)C)CC2)CC1 | inactive: 25.8%
44 | O=S(=O)(c1ccc(Br)cc1)c1nnn2c1nc(N1CCOCC1)c1sccc12 | inactive: 0.994%
45 | CCc1cnc2c(c1SCC(=O)c1ccccc1)c(=O)n(C)c(=O)n2C | inactive: 1.92%
46 | CCOc1cc(C(=O)OCc2cc(=O)n3nc(CC)sc3n2)cc(OCC)c1OCC | inactive: 2.22%
47 | CCC(=O)N1CCc2cc(Br)cc(S(=O)(=O)N3CCCC(C(=O)Nc4ccc(C(C)C)cc4)C3)c21 (centres undefined) | inactive: 13.3%
48 | CC1CCC(C(=O)NC(C(=O)OCC(=O)c2ccccc2)C(C)C)CC1 (centres undefined) | inactive: -0.448%

Row | SMILES | activity change, negative = cytotoxicity
49 | CCOc1sc2nc(C)n(CC(=O)Nc3cccc(C)c3)c(=O)c2c1C | inactive: 0.245%
50 | COc1ccc(-c2ccc(NS(=O)(=O)c3ccc(OC)c(OC)c3)cc2)nn1 | inactive: -4.06%
51 | COC(=O)c1ccccc1NC(=O)c1c(C)oc2ncn(C)c(=O)c12 | inactive: 5.56%
52 | COc1ccc(OCc2nc3ccccc3n2Cc2ccccc2Cl)cc1 | inactive: -3.33%
53 | CCCCC(=O)N(c1ccc2oc(C)c(C(C)=O)c2c1)S(=O)(=O)c1ccc(F)cc1C | inactive: -25.5%
54 | CCc1ccc(CN(Cc2ccco2)c2cnc(S(C)(=O)=O)nc2C(=O)Nc2cccc(C)c2)cc1 | inactive: -3.14%
55 | COC(=O)c1ccc(NC(=O)CSc2nc(=O)[nH]c3c2CCCC3)cc1 | inactive: 4.85%
56 | CCOC(=O)COc1ccc([N+](=O)[O-])cc1-c1ccnc2cc(-c3ccc(Cl)cc3)nn12 | inactive: 14.3%
57 | CNC(=O)C1CCC(Cn2c(=O)c3sccc3n(CC(=O)NCc3ccccc3)c2=O)CC1 (centres undefined) | inactive: -4.72%
58 | COCCCNC(=O)c1oc2c(c1C)-c1nn(Cc3ccccc3Cl)cc1CC2 | inactive: -3.48%
59 | Cc1ccccc1C(=O)Nc1sc2c(c1C(=O)NCc1ccco1)CCC(C(C)(C)C)C2 (centres undefined) | inactive: 1.42%
60 | Cc1ccc(SCCNC(=O)CN(c2ccccc2)S(=O)(=O)N(C)C)cc1 | inactive: -0.595%
61 | Cc1cccc(-c2noc(-c3ccccc3OCC(=O)Nc3ccc([N+](=O)[O-])cc3)n2)c1 | inactive: 12.6%
62 | COc1ccccc1CNc1nc(-c2ccco2)nn1S(=O)(=O)c1ccc2ccccc2c1 | inactive: 5.41%
63 | N#Cc1ccc(C(=O)Nc2cc3nn(-c4ccccc4)nc3cc2Cl)c(F)c1 | inactive: 3.83%
64 | CCCC(=O)NCC1(N(C)C)CCCCC1 | inactive: -2.73%
65 | Cc1ccc(Cl)cc1NC(=O)c1cnc(N2CCCCC2)c2ccccc12 | inactive: -2.21%
66 | Cn1c(=NC(=O)c2ccc(S(=O)(=O)N3CCCc4ccccc43)cc2)sc2cc(F)ccc21 | inactive: 2.18%
67 | CC(C)OCCCn1c(=O)c2ccccc2n2c(-c3ccc(F)cc3)nnc12 | inactive: 4.62%
68 | COc1ccc(S(=O)(=O)N(CC(=O)Nc2ccccc2Br)Cc2ccccc2)cc1 | inactive: -6.21%
69 | Cc1cccc(C(=O)Nc2c(-c3ccccc3)nc3cc(C)ccn23)c1 | inactive: -7.26%
70 | COc1ccc(NC(=O)C(=O)NCCc2csc(-c3ccc(Cl)cc3)n2)cc1OC | inactive: 5.01%
71 | CCOc1cc2sc(N3CCC(C(=O)Nc4ccc(C)cc4C)CC3)nc2cc1Br | inactive: -9.15%
72 | COc1ccccc1NC(=O)C(=O)NCC(c1ccc2c(c1)OCO2)N1CCN(C)CC1 (centres undefined) | inactive: -2.16%

Row | SMILES | activity change, negative = cytotoxicity
73 | CCN1CCN(c2ncc3c(n2)CCN(Cc2cc(F)cc(F)c2)C3)CC1 | inactive: 5.04%
74 | COc1ccc(-c2nc3scc(CCNS(=O)(=O)c4ccc(C)cc4)n3n2)cc1 | inactive: -13.3%
75 | COc1ccc(CNC(=O)C(=O)NCC(c2cccs2)S(=O)(=O)c2ccc(F)cc2)cc1 (centres undefined) | inactive: 23.2%
76 | COc1ccc(CN(CCC(c2ccc3c(c2)OCO3)c2ccccc2OC)C(C)=O)cc1 (centres undefined) | inactive: 3.9%
77 | CCOCCCn1c(=N)c(S(=O)(=O)c2ccc(C)cc2)cc2c(=O)n3cccc(C)c3nc21 | inactive: 10.9%
78 | CCOc1ccc(N(CC(=O)Nc2ccc(F)cc2F)S(=O)(=O)c2c(C)[nH]c(=O)[nH]c2=O)cc1 | inactive: -1.83%
79 | O=C(NCC(c1ccc2c(c1)OCO2)N1CCN(c2ccccc2)CC1)c1ccccc1F (centres undefined) | inactive: 10.4%
80 | CCOC(=O)c1ccc(OCC2c3cc(OC)c(OC)cc3CCN2C(=O)Cc2ccc(F)cc2)cc1 (centres undefined) | inactive: 2.23%
81 | CC(=O)N1CCCc2cc(S(=O)(=O)N(C)CC(=O)Nc3ccc(F)cc3Cl)ccc21 | inactive: -6.79%
82 | Cc1cc(O)c(C(c2ccc(F)cc2)N2CCCCC2)c(=O)n1Cc1ccco1 (centres undefined) | inactive: 11.1%
83 | O=C(Nc1cccc(C(=O)N2CCCCC2)c1)c1nsc2ccccc12 | inactive: -2.53%
84 | Cc1cc(Nc2cccc(C(F)(F)F)c2)nc2ccc(NC(=O)c3ccc(N(C)C)cc3)cc12 | inactive: -14.9%
85 | Cc1ccc(NC(=O)c2sc3ccccc3c2Cl)cc1 | inactive: -1.98%
86 | Cc1ccc(CN2C(=O)c3ccccc3C2C(=O)NC2CCCCCC2)cc1 (centres undefined) | inactive: 21.2%
87 | Cc1cccn2c(=O)c(/C=C(\C#N)c3nc4ccccc4n3C)c(Oc3ccc(Br)cc3)nc12 | inactive: -4.53%
88 | O=C(CN1CCN(c2ccc(Cl)cc2)CC1)Nc1ccc(F)cc1F | inactive: 10.9%
89 | Cc1ccc(NC(=O)CCCn2nc(C)c3c(C)n(-c4ccccc4)nc3c2=O)cc1Cl | inactive: 0.987%
90 | COc1ccc(CNC(=O)CCn2nc(C)c3c(C)n(-c4ccccc4)nc3c2=O)cc1OC | inactive: -7.81%
91 | CCC(CC)C(=O)Nc1cccc(-c2nc3cccnc3s2)c1C | inactive: -22.3%
92 | CCOc1ccc(CNC(=O)C2CCCN(c3nc4c(C)cc(C)cc4s3)C2)cc1 (centres undefined) | inactive: 5.93%
93 | COc1ccc(-n2nc3ccc(NC(=O)c4cc5ccccc5o4)cc3n2)cc1Cl | inactive: 17.8%
94 | CC1(C)O[C@H]2[C@@H](O1)[C@@H](C(=O)Nc1ccccc1O)O[C@@H]1OC(C)(C)O[C@@H]12 | inactive: -10.4%
